Results taken from PubChem BioAssay AID485281 (National Center for Advancing Translational Sciences (NCATS), 2010).
The campaign covered roughly 350,000 compounds. About 260 (0.074%) were called active. Inconclusive results, whose numbers are uncertain, are shown with a selection of clear calls. Calls come from the whole dose curve; as a rule, active = well fitted inhibition curve with a large enough effect; inconclusive = small, poorly fitted or top-dose-only effect; inactive = no such curve, though single readings can be large or run the other way. A potency beside an inconclusive call is a rough fit, not a confirmed value.

The compounds below were run against Ferritin light chain (Equus caballus) (UniProt P02791) (assay: qHTS Assay for Identification of Novel General Anesthetics). Details: apoferritin/1-aminoanthracene competitive binding, fluorescence; activity change, negative = displacement: at 77.5 µM (top of the series).
Sequence of UniProt P02791 (P02791 whole entry, looked up): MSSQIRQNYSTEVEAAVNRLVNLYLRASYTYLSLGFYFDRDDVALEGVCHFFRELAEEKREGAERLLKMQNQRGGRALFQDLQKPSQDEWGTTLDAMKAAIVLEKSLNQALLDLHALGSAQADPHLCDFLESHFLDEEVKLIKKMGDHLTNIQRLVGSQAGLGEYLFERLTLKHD
How it was run: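 Concentration-response curves derived by four-parameter Hill fitting of normalized fluorescence, where compounds displaced 1-AMA from 10 uM horse apoferritin following a brief 10 min room-temperature incubation; propofol titration acted as positive control.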
% is set by controls: 0 for no effect and ±100 for the full control effect; potency is the fitted concentration of half-maximal effect; tags give direction and shape of the fitted curve.
Note: nearly all actives have a fitted effect of over 20% in size.

| Structure (SMILES) | Potency | activity change, negative = displacement |
| --- | --- | --- |
| O=Cc1ccccc1OCc1ccc2c(c1)OCO2 | inconclusive: 8.91 µM [inhibitor, partial curve] |  |
| O=c1c2ccccc2nc(-c2ccco2)n1Cc1ccccc1 | inconclusive: 17.8 µM [inhibitor, partial curve] |  |
| Cc1cccn2c(=O)c(/C=C(\C#N)C(=O)NCc3ccco3)c(N3CCCCCC3)nc12 | inconclusive: 56.2 µM [inhibitor, single point] |  |
| O=c1c2ccccc2nc(COc2ccccc2)n1/N=C/c1ccco1 | inconclusive: 28.2 µM [inhibitor, partial curve] |  |
| CSc1nc(-c2ccc(Cl)cc2Cl)[nH]c(=O)c1C#N |  | inactive: -10.1% |
| CCN1CCc2c(sc(NC(=O)c3ccc(S(=O)(=O)N4CCOCC4)cc3)c2C(=O)OC)C1 | inconclusive: 22.4 µM [inhibitor, partial curve] |  |
| COCCn1nnnc1C(c1cc2ccc(OC)cc2[nH]c1=O)N1CCN(C2CCCCC2)CC1 (stereo unspecified) | inconclusive: 44.7 µM [inhibitor, single point] |  |
| COc1ccc(Oc2c(Cl)cnn(-c3ccccc3)c2=O)cc1 | inconclusive: 20 µM [inhibitor, partial curve] |  |
| O=C(Nc1ccc(Br)cc1)c1cccc(N2C(=O)C3C4C=CC(C4)C3C2=O)c1 (stereo unspecified) | inconclusive: 35.5 µM [inhibitor, single point] |  |
| O=C(NCc1ccccc1)c1csc2c1CCCCC2 | inconclusive: 10 µM [inhibitor, partial curve] |  |
| CCC(C)NC(=O)CN1C(=O)NC2(CCc3ccccc3C2)C1=O (stereo unspecified) |  | inactive: -3.01% |
| O=C(Nc1ccc(Cl)cc1)N1CCC(c2ccccc2)C1 (stereo unspecified) | inactive |  |
| Cc1cc(-c2ccc(S(=O)(=O)Nc3ccc(Cl)cc3C)cc2)on1 | inconclusive: 22.4 µM [inhibitor, partial curve] |  |
| Cc1ccc(-c2nc(CS(=O)(=O)CC(=O)NCc3ccc4c(c3)OCO4)c(C)o2)cc1 | inconclusive: 22.4 µM [inhibitor, partial curve] |  |
| Cc1cc(N2C(=O)C(O)=C(C(=O)c3ccc(C)o3)C2c2ccc(OCc3ccccc3)cc2)no1 (stereo unspecified) | inconclusive: 12.6 µM [inhibitor, partial curve] |  |
| COc1ccc(NC(=O)Cn2cc(S(=O)(=O)Cc3ccc(F)cc3)c3ccccc32)cc1OC |  | inactive: 4.26% |
| COc1ccc(NS(=O)(=O)c2cccc(C(=O)N3CCN(Cc4cc(OC)ccc4OC)CC3)c2)cc1 | inconclusive: 39.8 µM [inhibitor, single point] |  |
| O=C(Nc1ccc(C(F)(F)F)cc1)N1CCN(c2ccnc3cc(Cl)ccc23)CC1 | inconclusive: 15.8 µM [inhibitor, partial curve] |  |
| Cc1ccc(C=C2C(=O)c3ccccc3C2=O)s1 | inconclusive: 35.5 µM [inhibitor, partial curve] |  |
| CC(OC(=O)C1CCN(c2ccc(C(F)(F)F)cn2)CC1)C(=O)Nc1ccc(S(N)(=O)=O)cc1 (stereo unspecified) | inconclusive: 31.6 µM [inhibitor, partial curve] |  |
| CC1Cc2cc(S(=O)(=O)NCc3ccc(N(C)C)cc3)ccc2N1C(=O)C1CCC1 (stereo unspecified) |  | inactive: 49% |
| CC1(C)C(=O)OC(/C=C\c2cccc([N+](=O)[O-])c2)C(C)(C)C1=O (stereo unspecified) | inconclusive: 3.98 µM [inhibitor, full curve] |  |

| Structure (SMILES) | Potency | activity change, negative = displacement |
| --- | --- | --- |
| COc1ccccc1CNC(=O)c1cnn2c(C(F)F)cc(C)nc12 | inconclusive: 35.5 µM [inhibitor, partial curve] |  |
| O=C(c1cc(-c2ccncc2)nc2ccccc12)N1CCN(S(=O)(=O)/C=C/c2ccccc2)CC1 | inconclusive: 5.62 µM [inhibitor, partial curve] |  |
| C/C(=N\NC(=O)Cc1ccc(Cl)cc1)c1ccccc1O | inconclusive: 56.2 µM [inhibitor, single point] |  |
| COc1ccc(-c2ccc(CCC(=O)O)n2CC(=O)Nc2cccc(OC)c2)cc1 |  | inactive: -5.36% |
| O=C1C2=C(Nc3ccccc3SC2c2ccco2)c2ccccc21 (stereo unspecified) |  | inactive: -6.08% |
| CCN(CC)c1ccc(-c2nc(-c3ccco3)no2)cc1[N+](=O)[O-] |  | inactive: -7.97% |
| CC(C)C(=O)NC(NC(=S)Nc1cccc2cccnc12)C(Cl)(Cl)Cl (stereo unspecified) | inconclusive: 22.4 µM [inhibitor, partial curve] |  |
| CCN(CC)C(=O)CSc1nnc([C@@H](N)Cc2ccccc2)o1 |  | inactive: -17% |
| Cc1ccc(NC2CCCN(C(=O)CSc3ccccn3)C2)cc1C (stereo unspecified) | inconclusive: 25.1 µM [inhibitor, partial curve] |  |
| COc1ccc(CCNC(=O)COC(=O)C2CC2)cc1 |  | inactive: -6.22% |
| CC(=O)c1ccc(NC(=O)Nc2ccc3c(c2)N(C)C(=O)CS3)cc1 | inconclusive: 39.8 µM [inhibitor, partial curve] |  |
| CC[n+]1c(/C=C/c2c[nH]c3ccccc23)ccc2cc(C)ccc21 | inconclusive: 35.5 µM [inhibitor, partial curve] |  |
| CCN1CCCC1Cn1cnc2c([nH]c3ccc(Cl)cc32)c1=O (stereo unspecified) |  | inactive: -11.1% |
| CCOC(=O)c1ccc(NC(=O)CSc2nccn2Cc2ccc(OC)cc2)cc1 | inconclusive: 22.4 µM [inhibitor, partial curve] |  |
| Cc1cc2ccccc2n2c(SCC(=O)Nc3cccc(C(F)(F)F)c3)nnc12 |  | inactive: 37.8% |
| CCCOc1ccc(OCC(=O)c2[nH]c(C)c(C(C)=O)c2C)cc1 | inconclusive: 3.55 µM [inhibitor, full curve] |  |
| O=C(Cn1nc(Cl)nc1Cl)c1ccc2c(c1)OCCO2 | inconclusive: 39.8 µM [inhibitor, single point] |  |
| O/N=C/c1cccn1-c1ccc(O)cc1 | inconclusive: 31.6 µM [inhibitor, partial curve] |  |
| Cc1ccc(C(=O)CN(C(=O)c2ccc(Cl)cc2)N2C(=O)CCC2=O)cc1 |  | inactive: -20.9% |
| Cc1ccc(S(=O)(=O)NNC(=O)CCC(=O)Nc2ccc(C)c(C)c2)cc1 | inconclusive: 28.2 µM [inhibitor, partial curve] |  |
| O=C1/C(=C/c2cccc(F)c2)CSc2sccc21 | inconclusive: 15.8 µM [inhibitor, partial curve] |  |
| CCN(CC)c1ccc(/C=C(/C#N)c2nc3ccccc3[nH]2)c(OC(C)C)c1 | inconclusive: 8.91 µM [inhibitor, partial curve] |  |

| Structure (SMILES) | Potency | activity change, negative = displacement |
| --- | --- | --- |
| CCSc1nc2sc3c(c2c(=O)n1-c1ccccc1)CCN(C)C3 | inconclusive: 35.5 µM [inhibitor, partial curve] |  |
| COC(=O)[C@H]1C[C@H]2CC[C@H](O)C[C@H]2N1Cc1c(F)cccc1Cl |  | inactive: -19.9% |
| Cc1ccc(C(=O)N2C3C=CC(C3)C2(C(F)(F)F)C(F)(F)F)cc1 (stereo unspecified) | inconclusive: 5.01 µM [inhibitor, full curve] |  |
| CCOC(=O)c1ccc(NC(=O)CSc2nc(SC)ns2)cc1 | inconclusive: 11.2 µM [inhibitor, partial curve] |  |
| O=C(CSc1ncnc2[nH]ncc12)Nc1cccc(Oc2ccccc2)c1 | inconclusive: 28.2 µM [inhibitor, partial curve] |  |
| Cc1cccc2c1N(CCCOc1ccc(C(C)(C)C)cc1)C(=O)C2=O | inconclusive: 17.8 µM [inhibitor, partial curve] |  |
| Cc1ccc(N2CC(C(=O)Nc3ccc(C)c(S(=O)(=O)N(C)C)c3)CC2=O)cc1 (stereo unspecified) | inconclusive: 39.8 µM [inhibitor, partial curve] |  |
| O=c1[nH]nc(CNc2ccc(OC(F)(F)F)cc2)c2ccccc12 | inconclusive: 31.6 µM [inhibitor, single point] |  |
| Cc1ccc2c(c1)c(=O)c(S(=O)(=O)c1ccc(C)c(C)c1)cn2CC(=O)Nc1ccccc1 | inconclusive: 7.94 µM [inhibitor, partial curve] |  |
| O=C(Oc1ccnc2cc(Cl)ccc12)N1CCCCCC1 | inconclusive: 39.8 µM [inhibitor, single point] |  |
| O=C1CC(C(=O)Nc2cccc3ccccc23)C2(CCCC2)O1 (stereo unspecified) |  | inactive: -12.8% |
| CCc1cc(-c2n[nH]c(C)c2-c2nc3ccccc3n2C)c(O)c(CN2CCN(C)CC2)c1O | inconclusive: 22.4 µM [inhibitor, partial curve] |  |
| CNc1ncc(C(=O)c2ccc(Br)cc2)s1 | inconclusive: 20 µM [inhibitor, partial curve] |  |
| Cc1cc(OCC(=O)NCCCN(C)C)cc(C)c1Br | inconclusive: 28.2 µM [inhibitor, partial curve, poor fit] |  |
| CCOc1cccc(-c2nn(-c3ccccc3)cc2/C=C(/C#N)C(=O)NCCCn2ccnc2)c1 | inconclusive: 28.2 µM [inhibitor, single point] |  |
| Clc1ccc(Nc2ncnc3c2cnn3-c2ccccc2)cc1 |  | inactive: 4.96% |
| CN1/C(=C/c2cc[n+](C)c3ccccc23)C=Cc2ccccc21 | inconclusive: 8.91 µM [inhibitor, full curve, poor fit] |  |
| CCN(CC)S(=O)(=O)c1ccc(NS(=O)(=O)c2ccc(F)cc2)cc1 | inconclusive: 14.1 µM [inhibitor, full curve, poor fit] |  |
| Cc1csc(NC(=O)CNC(=O)OCc2ccccc2)n1 | inconclusive: 39.8 µM [inhibitor, single point] |  |
| COCc1cc(C)nc(OCC(=O)N/N=C/c2cc(C)n(-c3c(C)cccc3C)c2C)c1C#N | inconclusive: 17.8 µM [inhibitor, partial curve] |  |
| CC1CC(C)CN(C(=O)COC(=O)CCCN2C(=O)c3cccc4cccc(c34)C2=O)C1 (stereo unspecified) | inconclusive: 39.8 µM [inhibitor, partial curve] |  |
| O=C(NCCNc1ccc([N+](=O)[O-])cc1C(F)(F)F)c1ccccc1F | inconclusive: 31.6 µM [inhibitor, partial curve] |  |
